# From ChEMBL document CHEMBL1201862, “PubChem BioAssay data set” (2004)
# “And” between values parts separate entries of the source, which are not always exact repeats. Equal values may be shown once.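 All cell lines were grown in 96-well plates and treated with compound for 48 hours. GI50 = concentration required for 50% inhibition of growth.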 The source made the active and inactive calls. Cut-off read from the data, not from the text of the source: active = GI50 up to about 1.1 µM and inactive = higher.
# Test system: NCI-H322M
# Assay: growth of human tumour cells (NCI), 48 h
row,Compound,GI50
1,Clc1cc2nc(C3CCCCO3)[nH]c2cc1Cl (stereo unspecified),inactive: 28.1 µM
2,CCC1(CN(C)C)CC/C(=C\c2ccc3c(c2)OCO3)C1=O (stereo unspecified),inactive: > 100 µM
3,COc1ccc(CN2C[C@H]3[C@@H](CC(=O)O[C@H]3C)CC2=O)cc1,inactive: > 100 µM
4,CC(Oc1ccc(Cl)cc1Cl)C(=O)NN1C(=O)CC(=O)NC1=S (stereo unspecified),inactive: > 100 µM
5,O=C(O)c1ccc2c(O)c(O)ccc2c1,inactive: 22.8 µM
6,CCCCC1Cc2ccccc2-c2n1c1ccccc1[n+]2C (stereo unspecified),inactive: 51.8 µM
7,CC(C)NC(=O)OCc1c(COC(=O)NC(C)C)n(C)c2c1ccc1cc(Cl)c(Cl)cc12,inactive: 13.8 µM
8,N#Cc1nc(Nc2ccc([N+](=O)[O-])cc2)sc1N,inactive: 31.5 µM
9,Cc1ccc(C2SCC(=O)N2c2ccc(-n3c(-c4ccccc4)nc4ccccc4c3=O)cc2)cc1 (stereo unspecified),inactive: 27.2 µM
10,CC1=C2CCCC2C/C(=N/Nc2ccc([N+](=O)[O-])cc2[N+](=O)[O-])CC1 (stereo unspecified),inactive: > 100 µM
11,O=C(CN1c2ccccc2Sc2ccccc21)N1CCNCC1,inactive: > 100 µM
12,CC(=O)OC1c2ccccc2CCCCCCC12OCCO2 (stereo unspecified),inactive: > 100 µM
13,O=C1CCCC2COc3ccc(O)c1c32 (stereo unspecified),inactive: > 100 µM
14,C=CC[P@]1(=O)O[C@H](c2ccccc2)[C@H](C)N1C,inactive: > 100 µM
15,Cc1cc(C)c2c(=O)n(CN3CCN(c4ccccc4)CC3)sc2n1,inactive: 45.7 µM
16,COc1cc(C(=O)N(Cc2cccnc2)C(=S)N(Cc2cccnc2)C(=O)c2cc(OC)c(OC)c(OC)c2)cc(OC)c1OC,inactive: 77.6 µM
17,Cc1cc(-c2c(Br)cc(C(=O)O)n2C)on1,inactive: > 100 µM
18,COc1ccc(CN2CC(C)(C)C2=O)c(OC)c1,inactive: > 100 µM
19,Cn1c([C@H](C#N)C(=O)c2cc(O)ccc2[N+](=O)[O-])nc2ccccc21,inactive: > 100 µM
20,Cc1ccc(S(=O)(=O)NC(=O)C#CCOC2CCCCO2)cc1 (stereo unspecified),inactive: > 100 µM
21,O=c1c2cc(S(=O)(=O)Nc3c(Cl)cccc3Cl)ccc2ncn1NS(=O)(=O)c1ccc2ccccc2c1,inactive: > 62.5 µM
22,Cn1c(=O)c(-c2ccccc2)c(N=[N+]=[N-])c2ccccc21,inactive: > 100 µM
23,CCOC(=O)C1(CC)CCCCC(=O)N1 (stereo unspecified),inactive: > 100 µM

row,Compound,GI50
1,CSC1SCC2C(=O)N(C)C(C(C)C)C(=O)OCC(NC(=O)c3cnc4ccccc4n3)C(=O)NC(C)C(=O)N(C)C1C(=O)N(C)C(C(C)C)C(=O)OCC(NC(=O)c1cnc3ccccc3n1)C(=O)NC(C)C(=O)N2C (stereo unspecified),active: 0.0075 µM
2,O=C1N[C@@H](c2c[nH]c3ccc(Br)cc23)C(=O)N[C@H]1c1c[nH]c2ccc(Br)cc12,inactive: 11.7 µM
3,CC(Cc1ccc2c(c1)OCO2)N(C)C(=O)C1=CCN(C)CC1 (stereo unspecified),inactive: > 100 µM
4,Cc1cc(C)c2c(O)c(S(=O)(=O)c3ccc(Cl)cc3)c(=O)oc2c1,inactive: 72.6 µM
5,CC1(C)N[PH]2(Nc3ccccc3O2)OC1=O,inactive: > 100 µM
6,COC1CC(C)(NC(C)=O)C2OC(c3ccccc3)OCC2O1 (stereo unspecified),inactive: > 100 µM
7,O=C1C2=Nc3ccccc3C(O)N2c2ccccc21 (stereo unspecified),inactive: 21 µM
8,CCCCC#COP(=O)(OCC)OCC,inactive: > 100 µM
9,CCOc1ccc2nc(NC(=O)C(=O)C(C#N)CC(C)(C)C=O)sc2c1 (stereo unspecified),inactive: > 100 µM
10,CCCCC1Cc2cc(OC)ccc2-c2n1c1cc(OC)ccc1[n+]2C.CCCCC1Cc2cc(OC)ccc2-c2n1c1ccc(OC)cc1[n+]2C (stereo unspecified),inactive: 11.7 µM
11,CN(Cc1cc(Cl)cc(Cl)c1O)Cc1c(O)ccc2ccccc12,inactive: 19 µM
12,CN1S(=O)(=O)N(C)P12(N=P(CP(=NP13(N(C)S(=O)(=O)N1C)N(C)S(=O)(=O)N3C)(c1ccccc1)c1ccccc1)(c1ccccc1)c1ccccc1)N(C)S(=O)(=O)N2C,inactive: > 100 µM
13,COc1c(C(CC(C)C)OC(C)=O)ccc2c1C(=O)OCc1cc(C)cc(O)c1O2 (stereo unspecified),inactive: 16.9 µM
14,O=C1Oc2cc3c(c4cccc1c24)OCN(c1ccc(Cl)cc1)C3,inactive: > 67 µM
15,CN(C)C1(N(C)C)Oc2c(c(=O)n(C)c(=O)n2C)C(c2ccc(F)cc2)C1(F)F (stereo unspecified),inactive: > 100 µM
16,COc1ccc(N2C(=O)/C(=C/c3ccc(N(CCC#N)CCC#N)cc3)N=C2c2ccccc2)c(OC)c1,inactive: > 100 µM
17,CS(=O)(=O)N1CC(CCl)c2ccc(O)cc21 (stereo unspecified),inactive: 4.81 µM
18,O=C(CC(=O)c1cccc2ccccc12)C(=O)Nc1nccs1,inactive: > 100 µM
19,CC1(C)OCC(C2OC3OC(C)(C)OC3C2N)O1 (stereo unspecified),inactive: > 100 µM
20,Cc1cc(OCc2nnc3sc(NC(=O)c4ccccc4)nn23)ccc1Cl,inactive: 47.5 µM
21,CC1OC(n2cc(F)c(=O)[nH]c2=O)C=CC1=O (stereo unspecified),inactive: 63.7 µM
22,Cc1cnc2nc(-c3ccc(Cl)cc3)cc(O)c2c1,inactive: 5.62 µM
23,CC(=O)C1=C(C)N2C(=NC3=C(CCc4ccccc43)C2c2ccc(Cl)cc2)S1 (stereo unspecified),inactive: > 47.4 µM

row,Compound,GI50
1,COc1ccc(/C=C2\N=C3NC(=O)C(N4CCOCC4)=C(N)N3C2=O)cc1,inactive: > 100 µM
2,N#CC(C#N)=NNc1ccc2cn[nH]c2c1,inactive: > 100 µM
3,COc1cc(/C=C2/SC(c3ccccc3)N(c3cccc([N+](=O)[O-])c3)C2=O)cc(OC)c1OC (stereo unspecified),inactive: > 100 µM
4,CC(C)(C)O/N=C/c1cc(NC(=S)c2ccsc2)ccc1Cl,inactive: 21 µM
5,CC(C)(C)CN1[C@@H]2CCCC[C@H]2N(CC(C)(C)C)P1(=O)Cc1ccccc1,inactive: 14.7 µM
6,CC1CC(C#N)=C2NCCCCN2C1=O (stereo unspecified),inactive: > 100 µM
7,COc1ccc(/C=C2\C(=O)N(C3OC(COC(C)=O)C(OC(C)=O)C(OC(C)=O)C3OC(C)=O)c3ccccc3N=C2N)cc1 (stereo unspecified),inactive: 32.1 µM
8,Cc1cc(NS(=O)(=O)c2ccc(NC(=O)c3cccc4c(Nc5ccc(S(N)(=O)=O)cc5)c5ccccc5nc34)cc2)no1,inactive: > 100 µM
9,NC1(C(=O)O)CCc2ccc(N(CCCl)CCCl)cc2C1 (stereo unspecified),inactive: > 100 µM
10,C#CCn1c2c(c3ccccc3c1=O)C(=O)c1ccccc1-2,inactive: 17.8 µM
11,CC(C)=CCSC1CC2C(CC1(C)O)C2(C)C (stereo unspecified),inactive: 15.7 µM and inactive: 15.6 µM
12,CCOC(=O)NC(Nc1ccc(S(=O)(=O)Nc2ncccn2)cc1)(C(=O)OCC)C(F)(F)F (stereo unspecified),inactive: > 100 µM
13,C/C(=N\NC(=S)N1CCCC1)c1nc2cccnc2[nH]1,active: 0.375 µM
14,COc1cccc2c1C(=O)c1c(O)c3c(c(O)c1C2=O)C[C@@](O)(C(=O)CO)CC3OC1CC(N(C)CCOCC(OC(C)=O)OC(C)=O)C(O)C(C)O1 (stereo partly specified),active: > 0.01 µM
15,C=C1C[C@@H](O)[C@@H](Br)C(C)(C)[C@]12CCC(C)(Br)C(Cl)C2 (stereo partly specified),inactive: > 50 µM
16,S=C(N/N=C/c1ccccc1)NC12CC3CC(CC(C3)C1)C2,inactive: > 100 µM
17,Nc1sc2c(c1C(=O)c1ccc(Cl)c(Cl)c1)CCCC2,inactive: 15.1 µM
18,CCOC(=O)/C(C#N)=C(O)/C(=C/c1ccccc1Cl)NC(=O)c1ccccc1,inactive: > 100 µM
19,COc1ccc(N2C(=O)CC(Cl)C2=O)cc1 (stereo unspecified),inactive: > 100 µM
20,COC(=O)c1c(O)ccc2c1c1c(n2CCc2ccccc2)C(=O)c2ccccc2C1,inactive: 33.2 µM
21,CCCCCC(/C=C/[C@@H]1[C@@H](C(O)CCCCCC(=O)OC)C(=O)C[C@H]1O[Si](C)(C)C(C)(C)C)OCOCCOC (stereo partly specified),inactive: 19.6 µM
22,CCN(CC)c1ccc(NC(=S)NN(C)C)cc1,inactive: > 10 µM
23,CO/N=C(\C)c1cccc(Nc2c3ccccc3nc3occc23)c1,inactive: 25.4 µM

row,Compound,GI50
1,CCOC(=O)c1[nH]c(CN(C)Cc2[nH]c(C(=O)OCC)c(C)c2C(=O)OCc2ccccc2)c(C(=O)OCc2ccccc2)c1C,inactive: 26.1 µM
2,C1CC2CN(CCCN3CCOCC3)C(C1)O2 (stereo unspecified),inactive: > 100 µM
3,CSC(=S)OC1CC(n2cnc3c(NC(=O)c4ccccc4)ncnc32)OC1CO[Si](C)(C)C(C)(C)C (stereo unspecified),inactive: 50.5 µM
4,COC1=CC(=O)c2ccccc2C1(CCC=C(C)C)C1=NC(C)(C)CO1 (stereo unspecified),inactive: > 100 µM
5,S=C(Nc1ccc2c(c1)Cc1ccccc1-2)Nc1ccc2c(c1)Cc1ccccc1-2,inactive: > 100 µM
6,CC1=NC(C(=O)O)Cc2c1[nH]c1ccccc21 (stereo unspecified),inactive: > 100 µM
7,C=C1C(O)C[C@H](OC(C)=O)[C@]2(C)C1C(OC(C)=O)[C@]1(C(C)(C)O)CC(O)C(C)=C1[C@@H](OC(=O)c1ccccc1)C2OC(C)=O (stereo partly specified),inactive: > 10 µM
8,Cc1cc2[nH]c3c(C#N)c(-c4ccccc4)c(/N=N/c4cccc(C(F)(F)F)c4)c(=O)n3c2cc1C,inactive: 38.4 µM
9,Cc1cc(S(=O)(=O)/N=C2\NCCN2Cc2ccccc2)c(S)cc1Cl,inactive: > 100 µM
10,CCOC(=O)NC(Nc1ccc([N+](=O)[O-])cc1)(C(F)(F)F)C(F)(F)F,inactive: > 100 µM
11,CCN1C/C(=C\c2ccc(Cl)cc2)c2nc(N)c(C#N)c(-c3ccc(Cl)cc3)c2C1,inactive: > 100 µM
12,CSc1c(C#N)c(O)nc(N)c1C(=O)Nc1ccc(Cl)cc1,inactive: 12.6 µM
13,Cc1cc(C)nc(NS(=O)(=O)c2ccc(Nc3c4ccccc4nc4ccc(C(=O)Nc5ccc(S(N)(=O)=O)cc5)cc34)cc2)n1,inactive: > 100 µM
14,OCC1OC(c2ccccc2)CC1O (stereo unspecified),inactive: > 100 µM
15,COC1=CC(=O)[C@]2(C)[C@H](C1=O)C(C)[C@H]2c1ccccc1 (stereo partly specified),inactive: > 100 µM
16,Cn1c2ccccc2c2c3c(c4c5ccccc5n(C)c4c21)C(=O)c1ccccc1C3=O,inactive: 56.1 µM
17,CCN(CC)CCCNc1[nH]c2ccccc2c2nc3ccc(OC)cc3c1-2,inactive: 1.26 µM
18,CC(C)(Oc1ccc2c(=O)cc(-c3ccccc3)oc2c1)C(=O)N1CCN(c2ccccc2)CC1,inactive: 8.97 µM
19,COc1ccc2nc3ccccc3c(NCCCN(C)CCCl)c2c1,active: 0.269 µM
20,C[N+](C)(C)CC(CC(=O)[O-])C1CC1 (stereo unspecified),inactive: > 100 µM
21,COc1ccc2c(c1)CN1CCc3c(cc(OC)c(OC)c3OC)C1C2 (stereo unspecified),inactive: > 100 µM
22,NC(=S)NNC(=O)CCC(=O)Nc1ccc(Cl)cc1Cl,inactive: > 100 µM
